Measured values reported in paper PMC4336329 (PLoS ONE, 2015).
Out of some 310,000 compounds screened, about 2,200 (0.71%) showed an effect of 50% or more. The effect is printed as a negative number. This is one part of the list.

Each compound was assayed against human ether-à-go-go-related gene (hERG) potassium channel (human, UniProt Q12809) (assay: primary screen, population patch clamp on CHO cells stably expressing hERG).
Sequence of human ether-à-go-go-related gene (hERG) potassium channel (Q12809 whole entry, looked up): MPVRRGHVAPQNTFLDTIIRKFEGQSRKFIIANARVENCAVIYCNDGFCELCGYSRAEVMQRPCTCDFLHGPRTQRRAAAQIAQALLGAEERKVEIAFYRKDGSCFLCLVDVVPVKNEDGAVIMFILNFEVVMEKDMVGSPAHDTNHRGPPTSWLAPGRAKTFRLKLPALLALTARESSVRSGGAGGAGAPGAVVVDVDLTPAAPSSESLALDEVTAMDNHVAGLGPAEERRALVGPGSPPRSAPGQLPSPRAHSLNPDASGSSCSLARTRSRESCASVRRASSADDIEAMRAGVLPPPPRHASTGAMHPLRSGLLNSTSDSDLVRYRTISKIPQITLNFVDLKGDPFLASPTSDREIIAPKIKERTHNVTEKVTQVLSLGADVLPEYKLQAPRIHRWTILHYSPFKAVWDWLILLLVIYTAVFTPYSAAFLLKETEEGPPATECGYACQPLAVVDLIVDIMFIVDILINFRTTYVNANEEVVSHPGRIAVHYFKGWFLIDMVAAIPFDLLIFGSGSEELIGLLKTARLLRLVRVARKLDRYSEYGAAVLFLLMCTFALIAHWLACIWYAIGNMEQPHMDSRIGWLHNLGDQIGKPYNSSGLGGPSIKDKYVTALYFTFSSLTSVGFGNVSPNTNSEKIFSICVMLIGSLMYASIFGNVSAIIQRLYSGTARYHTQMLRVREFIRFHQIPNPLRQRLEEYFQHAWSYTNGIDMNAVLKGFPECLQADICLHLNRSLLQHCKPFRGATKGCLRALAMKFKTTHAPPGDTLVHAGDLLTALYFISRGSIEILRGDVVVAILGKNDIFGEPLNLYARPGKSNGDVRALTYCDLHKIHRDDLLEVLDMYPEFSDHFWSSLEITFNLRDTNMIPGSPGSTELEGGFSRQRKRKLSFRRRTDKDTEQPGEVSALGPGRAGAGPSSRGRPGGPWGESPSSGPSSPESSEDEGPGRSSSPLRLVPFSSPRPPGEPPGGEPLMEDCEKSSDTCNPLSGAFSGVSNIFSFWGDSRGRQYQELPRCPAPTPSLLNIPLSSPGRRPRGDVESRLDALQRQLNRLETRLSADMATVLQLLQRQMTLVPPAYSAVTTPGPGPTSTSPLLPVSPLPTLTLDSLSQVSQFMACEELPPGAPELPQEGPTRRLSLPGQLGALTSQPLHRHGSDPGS
For `N#C/C(=C\N1CCOCC1)c1ccccc1`, the “hERG current change (%, negative = inhibition) at 1uM” value was 6.79%. For `COc1cc(Cl)c(C)cc1NC(=O)CSC`, the “hERG current change (%, negative = inhibition) at 1uM” value was -0.457%. With `O=C(COC(=O)c1ccccc1)NCc1cccs1` the “hERG current change (%, negative = inhibition) at 1uM” value was 11.3%. `CCN(CC)Cc1cc(CC(C(N)=O)C(N)=O)ccc1OC` was tested, and the “hERG current change (%, negative = inhibition) at 1uM” value was 5.66%. `COc1ccc(-c2c3c(nc4sc5c(=O)[nH]c(C)nc5c24)CCC3)cc1` was tested, and the “hERG current change (%, negative = inhibition) at 1uM” value was 6.71%. In the case of `COc1ccc(C(=O)Nn2c(SCC(=O)NC3CCCCC3)nc3ccccc3c2=O)cc1`, the “hERG current change (%, negative = inhibition) at 1uM” value is reported as -0.2%. With `COc1ccc(C(=O)NCCc2nnc(SCC(=O)Nc3ccccc3C(C)C)n2C)cc1` the “hERG current change (%, negative = inhibition) at 1uM” value was -2.6%. In the case of `Cc1nc(NC(=O)c2ccc3c(c2)OCCO3)ccc1Br`, the “hERG current change (%, negative = inhibition) at 1uM” value is reported as 11.1%. For `COc1ccccc1C(=O)n1nc(-c2cccnc2)nc1N`, the “hERG current change (%, negative = inhibition) at 1uM” value was 11.1%. With `S=C(Nc1ccc(Cl)cc1)N1CCCCC1` the “hERG current change (%, negative = inhibition) at 1uM” value was 4.49%. With `O=C(NC(=O)N1CCN(c2cccc(Cl)c2)CC1)c1ccc(Cl)cc1` the “hERG current change (%, negative = inhibition) at 1uM” value was 2.19%. For `CC(C)(C)C(=O)NC(NC(=O)C(C)(C)C)c1ccc([N+](=O)[O-])cc1`, the “hERG current change (%, negative = inhibition) at 1uM” value was 14%. With `COc1ccc(C(=O)O/N=C2\C(=O)N(C)c3ccccc32)cc1` the “hERG current change (%, negative = inhibition) at 1uM” value was -11.6%. With `CN(CC(=O)Nc1ccc(Cl)cc1)C(=O)c1ccc(S(=O)(=O)Nc2ccccc2)cc1` the “hERG current change (%, negative = inhibition) at 1uM” value was 6.47%. With `O=C(O)C1=C(C(=O)N2CCN(C(=O)c3ccco3)CC2)CCCC1` the “hERG current change (%, negative = inhibition) at 1uM” value was 3.38%. In the case of `CC(c1ccc(Cl)cc1)n1c(-c2ccc3ccccc3n2)n[nH]c1=S` (centres unmarked), the “hERG current change (%, negative = inhibition) at 1uM” value is reported as 10%. `Cc1onc(-c2c(F)cccc2Cl)c1C(=O)N1CCSCC1` was tested, and the “hERG current change (%, negative = inhibition) at 1uM” value was 14.2%. In the case of `Cc1nn(C)cc1CN(C)C(=O)c1nn2c(c1Br)NC(c1cccs1)CC2C(F)(F)F` (centres unmarked), the “hERG current change (%, negative = inhibition) at 1uM” value is reported as 3.03%. With `COc1ccccc1NC(=O)NC1CCS(=O)(=O)C1` (centres unmarked) the “hERG current change (%, negative = inhibition) at 1uM” value was 16.5%. In the case of `COc1ccc(CNC(=O)CN2CCN(C(c3ccccc3)c3ccccc3)CC2)cc1`, the “hERG current change (%, negative = inhibition) at 1uM” value is reported as 15.7%. `COc1ccc(C(=O)NCC(=O)OCC(=O)c2ccc3c(c2)OCCO3)cc1` was tested, and the “hERG current change (%, negative = inhibition) at 1uM” value was 4.48%. With `O=C(COC(=O)c1cc(=O)[nH]c2ccccc12)NC(=O)NC1CCCCC1` the “hERG current change (%, negative = inhibition) at 1uM” value was 4.42%. For `CCN(CC)C(=O)CCc1nnc(Cc2cccc(C(F)(F)F)c2)o1`, the “hERG current change (%, negative = inhibition) at 1uM” value was 11.4%. With `Cc1ccn2c(CNCC3OCCc4ccccc43)c(C(=O)N3CCCCCC3)nc2c1` (centres unmarked) the “hERG current change (%, negative = inhibition) at 1uM” value was -18.2%. With `O=C(Cn1nc(Cc2cccnc2)c2ccccc2c1=O)N1CCN(c2ccccn2)CC1` the “hERG current change (%, negative = inhibition) at 1uM” value was -1.89%. For `O=C(O)c1ccc(NC(=S)N2CCCCC2)cc1`, the “hERG current change (%, negative = inhibition) at 1uM” value was 10.2%. `O=C(CNC(=O)c1ccco1)NCC(=O)OCc1ccc(Cl)cc1` was tested, and the “hERG current change (%, negative = inhibition) at 1uM” value was 6.67%. For `COc1ccc2c(=O)c3c(=O)n(-c4ccccc4)c(-c4ccc(C)cc4)nc3oc2c1`, the “hERG current change (%, negative = inhibition) at 1uM” value was 14.3%. `CN(CC(=O)Nc1ccc(F)c(F)c1F)C(=O)CCCc1nc2ccccc2c(=O)[nH]1` was tested, and the “hERG current change (%, negative = inhibition) at 1uM” value was 2.9%. `O.O=C1NC2(O)C(=O)c3ccccc3C2(O)N1` (centres unmarked) was tested, and the “hERG current change (%, negative = inhibition) at 1uM” value was 13.5%. In the case of `Cn1cccc1CC(=O)NNC(=S)Nc1ccc(F)cc1`, the “hERG current change (%, negative = inhibition) at 1uM” value is reported as 10.2%. `O=C1c2ccccc2NC(c2ccccn2)N1c1ccccc1F` (centres unmarked) was tested, and the “hERG current change (%, negative = inhibition) at 1uM” value was 10.7%. For `Cc1cccc(C)c1N=Cc1c(C(F)(F)F)[nH][nH]c1=O`, the “hERG current change (%, negative = inhibition) at 1uM” value was 4.12%. For `Clc1ccc(N2CC2c2ccncc2)cc1` (centres unmarked), the “hERG current change (%, negative = inhibition) at 1uM” value was 15%. `COc1cc(/C=C(/C#N)C(=O)NC(C)c2ccccc2)cc(OC)c1O` (centres unmarked) was tested, and the “hERG current change (%, negative = inhibition) at 1uM” value was 20.1%. `COc1[nH]c2ccc(F)cc2c1C(=O)OCC1CCN(CCNS(C)(=O)=O)CC1.NS(=O)(=O)O` was tested, and the “hERG current change (%, negative = inhibition) at 1uM” value was 9.88%. With `O=C1C(=O)N(c2nccs2)C(c2ccccc2F)/C1=C(\O)c1ccc2c(c1)OCCO2` (centres unmarked) the “hERG current change (%, negative = inhibition) at 1uM” value was 14%. In the case of `Cc1ccc(COC(=O)c2ccc3ccccc3n2)cc1`, the “hERG current change (%, negative = inhibition) at 1uM” value is reported as 9.37%. `CCCCn1c(N)c(NCCC)c(=O)[nH]c1=O` was tested, and the “hERG current change (%, negative = inhibition) at 1uM” value was 10.3%. `CCN(CC)c1ccc(C(=O)NNC(=O)CN2C(=O)NC(C)(c3ccccc3)C2=O)cc1` (centres unmarked) was tested, and the “hERG current change (%, negative = inhibition) at 1uM” value was 9.28%. `CC(=O)O.CN=C(N)NCCC[C@H](N)C(=O)O` was tested, and the “hERG current change (%, negative = inhibition) at 1uM” value was 19.7%. With `COc1cc(NC(=O)Nc2c(C)n(C)n(-c3ccccc3)c2=O)cc(OC)c1OC` the “hERG current change (%, negative = inhibition) at 1uM” value was 8.67%. For `CCO[C@H]1OC(C(N)=O)=C[C@@H](c2csc3ccccc23)[C@@H]1CCCO`, the “hERG current change (%, negative = inhibition) at 1uM” value was 8.25%. In the case of `COc1ccc(/C(C)=N/OCC(=O)N=Nc2c(O)[nH]c3ccccc23)cc1`, the “hERG current change (%, negative = inhibition) at 1uM” value is reported as -0.898%.
